# From the supplement of paper PMC3334620
# In all, about 33,000 sequences were measured (“E-score (-0.5 to 0.5)”: median about -0.011, highest 2% from about 0.28 on). Some of the results follow.
# Biological target: T1, Gcr1 (UniProt P07261)
# T1 sequence: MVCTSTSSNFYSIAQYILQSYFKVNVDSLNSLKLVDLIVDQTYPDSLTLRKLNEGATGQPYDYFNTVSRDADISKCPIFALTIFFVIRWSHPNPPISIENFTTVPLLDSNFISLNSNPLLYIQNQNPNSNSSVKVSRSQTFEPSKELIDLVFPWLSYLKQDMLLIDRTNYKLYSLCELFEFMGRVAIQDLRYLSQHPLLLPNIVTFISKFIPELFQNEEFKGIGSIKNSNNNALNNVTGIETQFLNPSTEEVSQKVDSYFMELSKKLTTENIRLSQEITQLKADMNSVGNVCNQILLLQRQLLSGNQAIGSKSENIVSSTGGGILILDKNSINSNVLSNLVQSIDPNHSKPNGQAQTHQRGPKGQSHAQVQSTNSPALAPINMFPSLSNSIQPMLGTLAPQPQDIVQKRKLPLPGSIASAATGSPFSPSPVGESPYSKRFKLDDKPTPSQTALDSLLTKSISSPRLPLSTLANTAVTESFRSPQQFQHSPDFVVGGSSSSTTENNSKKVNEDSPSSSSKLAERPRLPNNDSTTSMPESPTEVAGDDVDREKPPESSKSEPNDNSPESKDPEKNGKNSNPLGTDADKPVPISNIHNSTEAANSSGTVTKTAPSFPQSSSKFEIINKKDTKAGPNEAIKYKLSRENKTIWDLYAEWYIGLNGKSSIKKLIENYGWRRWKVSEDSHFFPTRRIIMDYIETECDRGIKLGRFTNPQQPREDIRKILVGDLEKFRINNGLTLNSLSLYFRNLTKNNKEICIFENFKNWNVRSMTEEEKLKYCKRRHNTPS
# Assay: PBM E-score (8-mer binding enrichment) (E-score (-0.5 to 0.5)); higher = stronger / more preferred TF binding; most listed sequences are background and not binding sites
# Conditions: protein concentration: 100 nM; construct: GST-full length
# Method: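 Universal 'all 10-mer' protein binding microarrays (Agilent AMADID 015681) probed with GST-tagged S. cerevisiae TFs (full-length or DBD) made by in vitro transcription/translation (PURExpress), about 100-200 nM. Bound TF was detected with fluorescent anti-GST. Each ungapped 8-mer (which stands for itself and its reverse complement) is scored by the PBM enrichment score (E-score), a modified Wilcoxon-Mann-Whitney statistic from -0.5 to +0.5, computed with the Universal PBM Analysis Suite. Scale: above 0.35 generally sequence-specific binding.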
row,Sequence,PBM E-score
1,GCGGATTA,-0.0372
2,TAAGGTAA,-0.0367
3,GCTGCAGC,-0.135
4,ACTTTGCT,-0.0659
5,CGGGTTAC,-0.0158
6,GTGTAAGA,-0.0682
7,GGAACGAA,0.115
8,ACCCCTTA,-0.0381
9,CTAGAGAG,-0.145
10,CTACCGTC,-0.0298
11,GAGGTGTA,-0.075
12,CAAGGGTG,-0.101
13,CTTCAGGC,-0.221
14,CGCTAGAG,-0.189
15,ATCATTCA,-0.0571
16,CGATTAGC,-0.0472
17,AACGGATC,0.0591
18,CTGCGCGA,-0.111
19,ATATGTGG,0.0312
20,AGACAACT,-0.118
21,GCTTCGAA,0.0428
22,GAGAGAGA,-0.115

row,Sequence,PBM E-score
1,CGTCATAC,-0.0511
2,AATTCGGC,0.0611
3,GCCTTTAA,0.0704
4,CGATTCGC,0.0104
5,ACGTAGAC,-0.0213
6,GCCGACGA,0.00816
7,ACTATAAC,-0.0682
8,CGAACTAC,0.00469
9,AGAGGTCC,-0.0649
10,CTGAGAGC,0.00285
11,AGATGCGC,0.103
12,ACAGTAGC,-0.133
13,GATTGCAA,-0.00101
14,CTGACATA,-0.0528
15,ACTATTCG,-0.0474
16,CGGCACTA,-0.0377
17,CTTTCGTC,-0.02
18,AAATCTTA,0.111
19,CCGCATAA,0.203
20,CCAAGAAG,0.0977
21,AGGACACT,-0.0873
22,CCAATCGG,-0.00989

row,Sequence,PBM E-score
1,TACTAGGA,0.122
2,ACCGAGCC,-0.31
3,CCCGGTAG,-0.0486
4,ATCTTACA,-0.0663
5,CTCATCCA,-0.128
6,TTGGGAAA,0.0142
7,CGTAAAGC,-0.164
8,TAATATCA,0.216
9,GACGAGAA,-0.104
10,GGCGCACA,-0.136
11,AGAAAAGC,-0.254
12,TACAATAA,-0.0889
13,AGCGACGA,-0.264
14,TACCATAA,-0.0155
15,GGGACGAC,-0.263
16,ATGTTGCA,0.131
17,AAAGGTCA,-0.149
18,GTGCCACA,-0.0702
19,CCCCGCTA,0.0143
20,GGTCGTTA,-0.0908
21,TCACCAGA,-0.053
22,GGGTAGCA,0.0203

row,Sequence,PBM E-score
1,CCTAACCA,-0.0514
2,GCCCAATA,0.201
3,ATTGTCAC,-0.199
4,AGAGACCG,0.101
5,CATGGAGC,-0.0926
6,GCCGTATA,0.197
7,GCACCTCC,0.0586
8,CTTGGAGC,-0.0903
9,AAAGCGGA,0.00092
10,CGGCCGTC,-0.245
11,CATCCGAA,0.0797
12,CACTGCCC,-0.202
13,AGGCGGCG,0.107
14,AAGAGCGC,-0.0963
15,GGAACACA,0.00024
16,ACCCCCGG,-0.0678
17,CGGGTAAG,-0.148
18,ACTATCCC,-0.207
19,CGTTAAAA,-0.00724
20,CGACACAC,-0.0424
